This test deals with T1, purified endogenous SIR complex (Sir2-FLAG) (S. cerevisiae (endogenous in yeast), UniProt P06700; P06701; P11978 1-1358).
T1 construct: NAD-dependent histone deacetylase Sir2, S. cerevisiae; Sir3, S. cerevisiae; named as a subunit of the SIR complex in the introduction; Sir4, S. cerevisiae; also called silent information regulator complex; not shown: FLAG, C-terminal, kept; copies: + +
The test is described as follows: pull-down; 1.0 µg biotinylated histone peptide incubated with 1 µg purified SIR complex (Sir2-FLAG) in 50 mM Tris-HCl pH 7.5, 250 mM NaCl, 0.1% NP-40, overnight at 4 °C; Streptavidin beads; immunoblot. The note with it: both partners purified. (In general: In western blotting, separated proteins are transferred to a membrane and probed.)

T1 sequence (P06700 whole entry, chain 1 of 3): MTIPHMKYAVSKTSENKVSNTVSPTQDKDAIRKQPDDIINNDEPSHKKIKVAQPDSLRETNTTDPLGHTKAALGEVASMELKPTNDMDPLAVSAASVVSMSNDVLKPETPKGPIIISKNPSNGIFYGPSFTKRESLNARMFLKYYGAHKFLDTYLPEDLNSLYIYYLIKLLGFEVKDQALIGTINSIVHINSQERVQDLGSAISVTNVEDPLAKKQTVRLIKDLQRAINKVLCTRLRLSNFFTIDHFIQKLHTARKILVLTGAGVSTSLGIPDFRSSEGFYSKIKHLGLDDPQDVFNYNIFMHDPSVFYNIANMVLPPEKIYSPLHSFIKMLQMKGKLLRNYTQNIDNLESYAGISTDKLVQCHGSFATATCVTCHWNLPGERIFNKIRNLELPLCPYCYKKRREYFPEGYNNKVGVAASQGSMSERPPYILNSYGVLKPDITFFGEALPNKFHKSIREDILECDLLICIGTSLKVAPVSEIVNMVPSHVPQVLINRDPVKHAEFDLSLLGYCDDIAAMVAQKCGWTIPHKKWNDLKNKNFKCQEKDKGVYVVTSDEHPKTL
T1 sequence (P06701 whole entry, chain 2 of 3, further chain): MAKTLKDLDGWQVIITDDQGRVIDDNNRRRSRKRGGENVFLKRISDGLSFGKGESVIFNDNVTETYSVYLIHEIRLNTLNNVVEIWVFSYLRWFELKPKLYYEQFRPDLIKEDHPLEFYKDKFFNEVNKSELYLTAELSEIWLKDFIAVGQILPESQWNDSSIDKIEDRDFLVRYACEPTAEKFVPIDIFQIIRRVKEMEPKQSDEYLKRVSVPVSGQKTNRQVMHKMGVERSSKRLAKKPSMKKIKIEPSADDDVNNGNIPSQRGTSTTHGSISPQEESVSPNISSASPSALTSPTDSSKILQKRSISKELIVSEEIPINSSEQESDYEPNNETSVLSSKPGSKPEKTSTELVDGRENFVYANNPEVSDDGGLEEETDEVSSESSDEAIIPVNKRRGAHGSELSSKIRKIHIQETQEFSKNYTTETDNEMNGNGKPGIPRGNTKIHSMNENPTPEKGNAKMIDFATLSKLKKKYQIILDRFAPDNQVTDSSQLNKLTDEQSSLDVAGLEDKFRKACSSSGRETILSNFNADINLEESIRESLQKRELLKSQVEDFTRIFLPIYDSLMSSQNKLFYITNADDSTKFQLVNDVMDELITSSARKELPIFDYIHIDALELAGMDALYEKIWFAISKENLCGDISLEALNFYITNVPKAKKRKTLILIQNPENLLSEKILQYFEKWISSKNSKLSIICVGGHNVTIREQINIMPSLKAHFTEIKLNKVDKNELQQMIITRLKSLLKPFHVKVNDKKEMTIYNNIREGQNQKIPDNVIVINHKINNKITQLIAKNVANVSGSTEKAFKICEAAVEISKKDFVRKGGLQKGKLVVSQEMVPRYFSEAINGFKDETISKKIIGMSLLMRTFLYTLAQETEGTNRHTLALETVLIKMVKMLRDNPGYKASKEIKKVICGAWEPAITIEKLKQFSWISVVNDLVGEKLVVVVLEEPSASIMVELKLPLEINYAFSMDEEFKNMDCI
T1 sequence (P11978 whole entry, chain 3 of 3, further chain): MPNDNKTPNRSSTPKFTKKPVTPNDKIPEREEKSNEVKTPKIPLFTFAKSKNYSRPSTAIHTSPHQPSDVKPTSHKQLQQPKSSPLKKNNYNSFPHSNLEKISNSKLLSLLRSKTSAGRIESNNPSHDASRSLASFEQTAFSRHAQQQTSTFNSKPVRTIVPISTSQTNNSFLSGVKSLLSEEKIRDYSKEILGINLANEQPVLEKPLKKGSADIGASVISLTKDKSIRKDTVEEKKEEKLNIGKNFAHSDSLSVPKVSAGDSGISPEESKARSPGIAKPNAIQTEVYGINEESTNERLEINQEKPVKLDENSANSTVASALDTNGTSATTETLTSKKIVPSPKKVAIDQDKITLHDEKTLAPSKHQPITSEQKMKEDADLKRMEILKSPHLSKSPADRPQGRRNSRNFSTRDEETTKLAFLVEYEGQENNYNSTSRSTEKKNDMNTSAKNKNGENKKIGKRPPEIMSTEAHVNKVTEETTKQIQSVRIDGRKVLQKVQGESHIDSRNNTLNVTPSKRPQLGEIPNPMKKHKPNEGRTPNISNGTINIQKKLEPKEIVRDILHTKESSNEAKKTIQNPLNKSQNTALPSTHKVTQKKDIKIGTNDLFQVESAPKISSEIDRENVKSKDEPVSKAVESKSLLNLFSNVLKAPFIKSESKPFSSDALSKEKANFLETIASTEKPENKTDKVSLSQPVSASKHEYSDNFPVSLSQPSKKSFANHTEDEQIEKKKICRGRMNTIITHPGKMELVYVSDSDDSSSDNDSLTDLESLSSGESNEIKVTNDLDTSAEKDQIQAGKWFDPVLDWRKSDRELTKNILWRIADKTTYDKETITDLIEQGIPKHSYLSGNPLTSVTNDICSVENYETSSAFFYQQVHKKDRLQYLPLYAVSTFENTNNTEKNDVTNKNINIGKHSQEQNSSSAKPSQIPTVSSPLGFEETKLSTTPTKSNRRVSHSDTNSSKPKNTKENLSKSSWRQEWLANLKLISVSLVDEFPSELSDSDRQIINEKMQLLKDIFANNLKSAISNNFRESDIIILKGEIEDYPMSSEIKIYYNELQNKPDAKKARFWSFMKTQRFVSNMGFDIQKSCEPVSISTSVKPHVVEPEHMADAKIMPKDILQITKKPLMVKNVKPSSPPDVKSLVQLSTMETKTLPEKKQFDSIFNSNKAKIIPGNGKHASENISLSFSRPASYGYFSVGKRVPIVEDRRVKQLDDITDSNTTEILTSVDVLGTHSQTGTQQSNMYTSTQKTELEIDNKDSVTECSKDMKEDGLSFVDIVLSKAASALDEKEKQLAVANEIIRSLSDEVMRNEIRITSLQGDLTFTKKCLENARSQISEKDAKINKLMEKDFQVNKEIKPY

B1: H3pT11 ([…]) peptide (peptide)
peptide: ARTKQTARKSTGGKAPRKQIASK
modifications: phosphothreonine at T11; biotin (position not given)
notes: histone H3 […]; also called H3T11 phosphorylated (H3pT11) H3 ([…]) peptide; H3pT11 peptide; source: synthetic peptide (biotinylated histone peptide)
Turning to B1, the binding result is “binds”.

Values taken from PMC9726891, “SESAME-catalyzed H3T11 phosphorylation inhibits Dot1-catalyzed H3K79me3 to regulate autophagy and telomere silencing” (Nature Communications, 2022).
